Data on 84 compounds can be found in ChEMBL document CHEMBL4888484, “Replenishing the malaria drug discovery pipeline: Screening and hit evaluation of the MMV Hit Generation Library 1 (HGL1) against asexual blood stage Plasmodium falciparum ,using a nano luciferase reporter read-out” (2022).

Out of some 150,000 compounds screened, about 540 (0.36%) showed an effect of 50% or more. Some of the results follow.

The subject of the experiment is Plasmodium falciparum. Nature of the experiment: Primary screen in NF54 nanoGlo assay, in single point, at 2uM, 72h; a lower Z score goes with more inhibition. The class given is functional, Erythrocyte. To be noted: timepoint 72 hour.
For orientation: % Inhibition means the relative decrease from the control value, in per cent. Consider `C[C@]1(c2cc(F)ccc2F)NC(=O)N(c2ccncc2)C1=O`, for which the “% Inhibition” value was determined as 10% and the Z score is -1.15.
As to `O=C(CN1CCC(n2cncn2)CC1)Nc1nc2ccccc2s1`, the “% Inhibition” value is reported as -12% and the Z score amounted to 1.63.
Take `O=C(c1cnn[nH]1)N1CCC2(CC1)CCN(c1ccccc1)C2=O`: the “% Inhibition” value is on record as 6% and the Z score is recorded as -1.11.
The like results for `Cc1ccc(Cl)cc1NC(=O)c1cc(-c2cnn(-c3ccc(C(C)C)cc3)c2C)nc2ccccc12` were, in that order, -3% and 0.42.
For `CCC(C)C(=O)OCC1CCCN(C)C1c1ccc(C(F)(F)F)cc1` (stereo not drawn) the same measures were -3% and 0.54.
For `O=C(NCc1ccccc1)N1CCCN(C2=Nc3ccccc3Oc3ccccc32)CC1`, the “% Inhibition” value is on record as -7% and the Z score stood at 0.97.
The like results for `Cc1cc(=O)c2cccc(C(=O)NCCNS(C)(=O)=O)c2[nH]1` were, in that order, -18% and 1.77.
With `C[C@H]1CN(C(=O)Cc2ccn(C)n2)CC(=O)N1C`, the “% Inhibition” value was -4% and the Z score is reported as 0.67.
The like results for `CCOC(=O)N1CCC(N[C@H](c2nccs2)C2CC2)CC1` were, in that order, -8% and 0.82.
For the compound `Cn1ccnc1CCNc1cc(C(F)F)ncn1`, the “% Inhibition” value is recorded as -4% and the Z score was determined as 0.64.
For `O=C1NCCCOc2cccc(c2)[C@H]2c3ccc(cc3CCN2C(=O)CNC2CC2)Oc2ccc(O)c1c2` the same measures were 21% and -2.34.
For `Cc1cnc(C(=O)N2CCCCC[C@@H]2CN2CCCC2)cn1` the same measures were -4% and 0.56.
For `O=S(=O)(c1ccc(F)c(Cl)c1)N1CCCN(c2nc3ccccc3nc2-c2ccccc2)CC1` the same measures were -3% and 0.25.
Turning to `CNC(=O)Nc1cccc(NC(=O)c2cncc(-c3cnn(C)c3)c2)c1`, the “% Inhibition” value is 24% and the Z score is given as -3.15.
Turning to `N#CCc1ccc(OCC(=O)Nc2ccccc2N2CCc3ccccc32)cc1`, the “% Inhibition” value is 18% and the Z score is reported as -2.26.
In the case of `COc1ccc(OC)c(-c2cc(C(=O)NCC#CCN3CCc4ccccc4C3)[nH]n2)c1`, the “% Inhibition” value is reported as -3% and the Z score is on record as 0.52.
The like results for `Cc1nc(C(C)C)sc1CNC(=O)c1cccn1C1CC1` were, in that order, -13% and 1.51.
For `N/C(=N/O)c1nsc(Nc2ccccc2)n1` the same measures were -14% and 1.79.
For `Cc1cnc(CN[C@H]2CCCN(C(=O)OC(C)(C)C)C2)s1` the same measures were -11% and 1.08.
For `COCCN1CCN(CCc2ccccc2)[C@@H]2CS(=O)(=O)C[C@@H]21`, the “% Inhibition” value is reported as -17% and the Z score was 1.98.
As for `CCC[C@]1(COC)CCCN1C(=O)Cc1ccc(C)nc1`, the “% Inhibition” value is -4% and the Z score is listed as 0.65.
`CCCN(Cc1c(C)nn(-c2cccc(F)c2)c1N1CCN(CC)CC1)C(=O)Nc1ccc(C)cc1C`: the “% Inhibition” value is given as -2% and the Z score was found to be 0.3.
Turning to `O=C(CN1CCCC[C@@H]1CCN1CCCC1=O)NCc1ccccc1F`, the “% Inhibition” value is given as -6% and the Z score is recorded as 1.08.
In the case of `O=C(Nc1ccccc1-c1cn2c(n1)CCCC2)c1ccc(=O)[nH]n1`, the “% Inhibition” value amounted to 13% and the Z score was -1.72.
Turning to `Cc1nc(C2CCN(Cc3c(C)[nH]c4c(C)cccc34)CC2)cc(=O)[nH]1`, the “% Inhibition” value was -25% and the Z score is on record as 2.34.
For `CCOC(=O)c1cnc(-c2ccc(OC)cc2)nc1N(C)Cc1ccccc1` the same measures were -4% and 0.51.
For `Cc1cccc(C(=O)N(Cc2ccco2)[C@H]2CCS(=O)(=O)C2)n1` the same measures were -7% and 1.46.
For `CC[C@@H](c1nc(-c2ccc(-n3nc(C)cc3N)cc2)no1)n1cccn1` the same measures were -2% and 0.32.
With `COCc1nc(NC2CCC(NC(=O)c3ccccc3F)CC2)c2cnn(-c3ccccc3Cl)c2n1` (stereo not drawn), the “% Inhibition” value was 13% and the Z score is listed as -2.27.
As to `CCOCCN(C)C1CC2CCCCC2NC1=O` (stereo not drawn), the “% Inhibition” value is recorded as -11% and the Z score is on record as 2.08.
`CCc1nn(C)c(Cl)c1CN1CCc2[nH]cnc2[C@H]1c1ccncc1`: the “% Inhibition” value was -11% and the Z score was found to be 1.38.
In the case of `CC(C)COC(C)C(=O)NC(Cc1ccccc1)c1ncon1` (stereo not drawn), the “% Inhibition” value is on record as 37% and the Z score is given as -3.5.
For `CC(=O)N1CCN(C(=O)c2cnn3c(-c4ccc(C)c(C)c4)ccnc23)CC1` the same measures were -8% and 1.09.
As to `Cc1cc(CN(C)Cc2cnccn2)c(C)c(CN2CCC[C@H](C)C2)c1`, the “% Inhibition” value is reported as -7% and the Z score was found to be 1.33.
On to `Cc1ccc(-c2noc(Cn3ncn4nc(-c5cc(C)ccc5C)cc4c3=O)n2)cc1`, for which the “% Inhibition” value was -5% and the Z score was determined as 0.56.
The like results for `Cc1cc(C(=O)N2CCC(c3nc(-c4cccn4C)no3)CC2)nn1C` were, in that order, -17% and 2.29.
The like results for `COCc1nc([C@@H]2COCCN2C(=O)c2cc(C)n(C(C)C)c2C)no1` were, in that order, -8% and 0.83.
Regarding `Cc1ccc(-c2cc(C(=O)NCCc3csc4c3CCCC4)[nH]n2)s1`, the “% Inhibition” value is reported as -14% and the Z score worked out at 1.82.
For `c1ccc([C@@H]2C[C@H](c3cccs3)n3ncnc3N2)cc1` the same measures were -8% and 0.89.
For `OCC1CCN(CCNc2ncccc2Cl)CC1` the same measures were -5% and 0.92.
The like results for `Cc1nn(CCO)cc1CN1C[C@@H]2CC[C@H]1CN(c1cnccn1)C2` were, in that order, -13% and 1.84.
Take `CC(C)NC(=O)N1CCC[C@H]1C(=O)N(C)Cc1cccc(N(C)C)c1`: the “% Inhibition” value was determined as 12% and the Z score is given as -1.62.
For the compound `Brc1ccc(C2(c3ccno3)CCOCC2)cc1`, the “% Inhibition” value is reported as -2% and the Z score worked out at 0.21.
`COCCN(Cc1ccc(OC)c(OS(=O)(=O)c2ccc(F)cc2)c1)C(=O)c1ccc2c(c1)OCO2`: the “% Inhibition” value is -2% and the Z score is recorded as 0.22.
As for `Cc1ccc2nc(O)c3nnc(C)n3c2c1`, the “% Inhibition” value is 34% and the Z score was -1.5.
The like results for `CCN(CCO)C(=O)c1ccc(C#N)c(Cl)c1` were, in that order, 9% and -1.33.
`CC(C)C1C(C(=O)NCc2cccc(-n3cncn3)c2)CCN1C(=O)OC(C)(C)C` (stereo not drawn): the “% Inhibition” value is -8% and the Z score was 1.16.
For `COC(=O)N1CCC[C@H](NC(=O)NCc2nc(C3CC3)no2)C1` the same measures were -16% and 1.97.
As to `C[C@H]1CN(S(=O)(=O)Cc2ccccc2)CCN1c1cnccn1`, the “% Inhibition” value was 8% and the Z score is -1.07.
`CC1(C)Cc2ccsc2CN1C(=O)c1cn2c(n1)CCC2`: the “% Inhibition” value was -8% and the Z score is given as 1.06.
The like results for `Cc1ccccc1C(=O)NC(=O)Nc1ccc(-n2nc(-c3ccccc3)cc2C(F)(F)F)cc1` were, in that order, 3% and -0.41.
The like results for `O=S(=O)(NCc1cccn1Cc1ccc(Cl)cc1)c1ccc2ccccc2c1` were, in that order, -16% and 1.56.
For `CC(C)c1csc(CN(CCO)Cc2nccn2C)n1` the same measures were -23% and 2.94.
Consider `CCCCS(=O)(=O)N1CC[C@H](CNc2nc(OC)ncc2Cl)C1`, for which the “% Inhibition” value was -2% and the Z score worked out at 0.38.
The like results for `Cn1cnc(C(=O)N2CCC[C@H](N(CCN3CCCC3)C(=O)C3CCC3)C2)c1` were, in that order, 4% and -0.53.
For `COC(=O)C1CCc2nnc(C3Cc4ccccc4O3)n2CC1` (stereo not drawn), the “% Inhibition” value amounted to 2% and the Z score is -0.32.
As to `COC(=O)c1cc(C2CC2)nc2c1c(=O)n(Cc1ccc(C)cc1)c(=O)n2-c1ccccc1`, the “% Inhibition” value is reported as 3% and the Z score is listed as -0.36.
The like results for `CC1CCCCC1CN1CC(O)(CC#N)C1` (stereo not drawn) were, in that order, 0% and 0.02.
The like results for `CN1CCCN(C(=O)COCc2cc[nH]c(=O)c2)c2ccc(F)cc21` were, in that order, -8% and 1.56.
The like results for `Cn1c(=O)c2c(nc(-n3nc(-c4ccco4)cc3O)n2CCc2ccccc2)n(C)c1=O` were, in that order, -5% and 0.92.
Take `CNC(=O)[C@H](CO)Nc1nccc(C(F)(F)F)n1`: the “% Inhibition” value is -2% and the Z score was determined as 0.31.
`O=C(OCn1cncn1)c1ccccc1O`: the “% Inhibition” value is -12% and the Z score is given as 1.55.
Take `Cc1nn(CCCNC(=O)c2ccc(-c3cc(O)nc(N)n3)cc2)c(C)c1C`: the “% Inhibition” value is -9% and the Z score is listed as 1.8.
Take `O=C(NCC1CCCO1)c1ccc(N2C(=O)C3CC=CCC3C2=O)cc1` (stereo not drawn): the “% Inhibition” value is on record as 9% and the Z score is reported as -1.19.
As to `Cc1ccc(-n2nc(C(=O)N3CCCCC3)c3ncn(C)c(=O)c32)cc1`, the “% Inhibition” value is recorded as -17% and the Z score was 1.53.
The like results for `Cc1ccc(S(=O)(=O)N2CCCC[C@H]2C2OCCO2)cc1F` were, in that order, -7% and 0.67.
Take `CCCc1nn(-c2ccc(Cl)cc2)c(=O)n1CC(=O)NC(C)C`: the “% Inhibition” value is 12% and the Z score is -1.64.
Consider `COC1(c2nc(-c3cc(C)ccn3)no2)CCCCC1`, for which the “% Inhibition” value was -7% and the Z score came out at 0.9.
Turning to `O=C(CCNC1CCN([C@H]2CCOC2)CC1)Nc1cc(Cl)cc(Cl)c1`, the “% Inhibition” value amounted to 25% and the Z score is -2.84.
For the compound `CC(NC(=O)c1ccncc1)C(c1cccs1)N1CCN(C)CC1` (stereo not drawn), the “% Inhibition” value was -15% and the Z score came to 2.32.
The like results for `COc1ccc(CCC(=O)N2CC(n3ccnn3)C2)cc1` were, in that order, -15% and 1.71.
For `C[C@@H](C1CC1)N(CCC#N)Cc1ccc(NS(C)(=O)=O)cc1` the same measures were -8% and 0.77.
With `O=C(c1ccc2c(c1)COC2)N1C[C@H](O)C2(CC2)C1`, the “% Inhibition” value is on record as 9% and the Z score is reported as -1.38.
As to `O=C(N[C@H]1CCc2ccccc21)c1nc2n(n1)-c1ccccc1S(=O)(=O)N2`, the “% Inhibition” value is reported as 6% and the Z score is -0.84.
For `CN(C(=O)CN(CC(=O)N(C)c1ccccc1)C1CCCC1)c1ccccc1`, the “% Inhibition” value turned out to be 0% and the Z score is reported as -0.05.
Turning to `COc1ccc(C2CN(C(=O)c3ccccc3Cl)CC2C(=O)NCC2CC2)c(OC)c1` (stereo not drawn), the “% Inhibition” value is 3% and the Z score was -0.33.
On to `CC(=O)N1CCN(c2ncccc2CNC(=O)[C@H]2CC23CCCCC3)CC1`, for which the “% Inhibition” value was -15% and the Z score is 2.06.
For `CC[C@@]1(C(=O)NCCc2ccc(F)cc2)CCCN1` the same measures were -5% and 0.69.
Consider `CC(=O)c1cc(Br)c2ocnc2c1`, for which the “% Inhibition” value worked out at 2% and the Z score is -0.26.
For `CCC(CC)C(=O)N[C@@H]1CCCC[C@@H]1n1cc(C(=O)O)nn1` the same measures were -11% and 2.07.
For `CC(=Cc1ccc(N(C)C(C)C)nc1)c1nc(C)c(C#N)c(=O)[nH]1` the same measures were -3% and 0.58.
The like results for `CC(C)c1cc([C@@H]2CCCN2Cc2cccc(Br)c2)no1` were, in that order, -11% and 1.96.
With `CCCCc1ccnc(NC(=O)NCc2nccn2CCCc2ccccc2)n1`, the “% Inhibition” value was determined as 8% and the Z score is listed as -1.16.
For `CCN(CC1CC1)C(=O)NCCC(C)(C)C` the same measures were -7% and 1.08.
